Some of the results follow.

Here are results for 28 compounds from the antibiotic and cytotoxicity screens of Wong et al. (2023).

One experiment concerns HSkMC. Kind of experiment: cytotoxicity call (relative viability < 0.9). The note with it: 10 µM.
Another experiment relates to HepG2. Description: cytotoxicity call (relative viability < 0.9). Particulars: 10 µM.
The subject of the next experiment is S. aureus RN4220. Description: growth inhibition call (relative growth <= 0.2). The note with it: 50 µM.

As to `CCOC(=O)OC(C)OC1=C(C(=O)Nc2ccccn2)N(C)S(=O)(=O)c2ccccc21` (centres undefined), the cytotoxicity call with HSkMC and in the experiment on HepG2 was “inactive” throughout. Further, the growth inhibition call with S. aureus RN4220 is “inactive”.

Consider `C[C@@H]1CN([C@H](C)CO)C(=O)CCCn2nncc2CO[C@H]1CN(C)Cc1ccc(C(=O)Nc2ccccc2N)cc1`, for which the cytotoxicity call with HSkMC and in the experiment with HepG2 was “inactive” in each case. The growth inhibition call with S. aureus RN4220 was “inactive”.

Turning to `C[C@@H]1CCCCO[C@@H](CN(C)C(=O)Nc2ccc(C(F)(F)F)cc2)[C@H](C)CN([C@H](C)CO)C(=O)c2cc(NS(=O)(=O)c3cccs3)ccc2O1`, in the experiment with HSkMC, the cytotoxicity call is “inactive”. Moreover, in the experiment with HepG2, the cytotoxicity call was “active”. Further, in the experiment with S. aureus RN4220, the growth inhibition call is “inactive”.

For `C[C@@H]1CN([C@H](C)CO)C(=O)c2cccc(NC(=O)c3cnccn3)c2O[C@H]1CN(C)S(=O)(=O)c1cn(C)cn1`, the cytotoxicity call with HSkMC and in the experiment with HepG2 was “inactive” in each case. For the same compound, the growth inhibition call in the experiment on S. aureus RN4220 is “inactive”.

Regarding `CCOC(=O)c1cc2c(=O)n(C)c(=O)n(C)c2[nH]c1=O`, the cytotoxicity call in the experiment on HSkMC and with HepG2 was “inactive” each time. For the same compound, in the experiment with S. aureus RN4220, the growth inhibition call was “inactive”.

For `Cc1noc(C)c1NC(=O)Nc1ccc2c(c1)CC(=O)N([C@@H](C)CO)C[C@H](C)[C@@H](CN(C)S(=O)(=O)c1c(C)noc1C)O2`, the cytotoxicity call in the experiment on HSkMC and in the experiment with HepG2 was “inactive” in each case. Besides, in the experiment on S. aureus RN4220, the growth inhibition call is “inactive”.

For `C[C@@H]1CN([C@@H](C)CO)C(=O)c2cc(C3=CCCC3)cnc2O[C@@H]1CN(C)C(=O)c1ccc2c(c1)OCO2`, the cytotoxicity call with HSkMC and in the experiment with HepG2 was “inactive” each time. The growth inhibition call in the experiment with S. aureus RN4220 is “inactive”.

With `Cc1ccc(S(=O)(=O)Nc2ccc3c(c2)C(=O)N([C@H](C)CO)C[C@H](C)[C@@H](CN(C)C(=O)Nc2ccc(C(F)(F)F)cc2)O3)cc1`, the cytotoxicity call in the experiment with HSkMC and with HepG2 was “inactive” in each case. Besides, the growth inhibition call with S. aureus RN4220 was “inactive”.

Turning to `COC(=O)CN(C)c1nnc(N)s1`, the cytotoxicity call in the experiment with HSkMC and in the experiment with HepG2 was “inactive” each time. In addition, in the experiment on S. aureus RN4220, the growth inhibition call was “inactive”.

Consider `C[C@@H]1CN([C@H](C)CO)C(=O)c2cc(NC(=O)Nc3cccc4ccccc34)ccc2O[C@H]1CN(C)C(=O)Nc1ccc2c(c1)OCO2`, for which the cytotoxicity call in the experiment on HSkMC and in the experiment with HepG2 was “inactive” throughout. In the experiment with S. aureus RN4220, the growth inhibition call was “inactive”.

Regarding `C[C@H]1CN([C@@H](C)CO)C(=O)c2cc(NC(=O)Nc3ccccc3)ccc2O[C@@H]1CN(C)C(=O)Nc1cccc2ccccc12`, the cytotoxicity call in the experiment on HSkMC and in the experiment on HepG2 was “inactive” each time. In the experiment with S. aureus RN4220, the growth inhibition call was “inactive”.

As to `COc1ccc(C(=O)C=Cc2ccccc2)cc1`, the cytotoxicity call with HSkMC is “inactive”. Further, the cytotoxicity call with HepG2 is “active”. Further, the growth inhibition call with S. aureus RN4220 is “inactive”.

Take `COc1ccc2c3c([nH]c2c1)[C@H](CO)N(Cc1nccs1)C[C@]13CCN(CC1)C(=O)C1CCOCC1`: the cytotoxicity call with HSkMC and in the experiment with HepG2 was “inactive” in each case. For the same compound, the growth inhibition call in the experiment with S. aureus RN4220 is “inactive”.

Consider `CC#CC1(O)CCC2C3CCC4=CC(=O)CCC4=C3C(c3ccc(N(C)C)cc3)CC21C` (centres undefined), for which the cytotoxicity call in the experiment with HSkMC and in the experiment with HepG2 was “inactive” throughout. Besides, in the experiment on S. aureus RN4220, the growth inhibition call was “inactive”.

Regarding `CC[C@H](NC(=O)[C@H](C)NC)C(=O)N1C[C@@H](O)C[C@H]1Cc1c(-c2[nH]c3cc(F)ccc3c2C[C@@H]2C[C@H](O)CN2C(=O)[C@H](CC)NC(=O)[C@H](C)NC)[nH]c2cc(F)ccc12`, the cytotoxicity call with HSkMC and with HepG2 was “inactive” each time. In addition, the growth inhibition call in the experiment with S. aureus RN4220 was “inactive”.

In the case of `CCCNC(=O)N1C[C@H]2[C@@H](c3ccccc31)[C@@H](CO)N2C(=O)CN1CCOCC1`, the cytotoxicity call in the experiment on HSkMC and in the experiment with HepG2 was “inactive” throughout. In addition, the growth inhibition call with S. aureus RN4220 was “inactive”.

Take `COc1cccc(C#Cc2cnc3c(c2)C(=O)N([C@@H](C)CO)C[C@H](C)[C@@H](CN(C)C(=O)C2CCOCC2)O3)c1`: the cytotoxicity call with HSkMC and in the experiment with HepG2 was “inactive” each time. In the experiment with S. aureus RN4220, the growth inhibition call is “inactive”.

As to `C[C@H](CO)N1C[C@H](C)[C@@H](CN(C)S(C)(=O)=O)OCCCC[C@H](C)Oc2ccc(NC(=O)Nc3cccc4ccccc34)cc2C1=O`, the cytotoxicity call with HSkMC and in the experiment with HepG2 was “inactive” throughout. The growth inhibition call in the experiment on S. aureus RN4220 was “inactive”.

For `CCC[C@@H](O)C#Cc1cnc2c(c1)C(=O)N([C@H](C)CO)C[C@H](C)[C@H](CN(C)C(=O)Nc1ccc(OC)cc1)O2`, the cytotoxicity call with HSkMC and in the experiment with HepG2 was “inactive” in each case. The growth inhibition call with S. aureus RN4220 was “inactive”.

Take `C[C@H](CO)N1C[C@H](C)[C@@H](CN(C)Cc2ccc(-c3ccccc3)cc2)Oc2ccc(NS(=O)(=O)c3ccccc3)cc2C1=O`: the cytotoxicity call with HSkMC and in the experiment with HepG2 was “inactive” each time. The growth inhibition call with S. aureus RN4220 was “inactive”.

`C[C@@H]1CN([C@@H](C)CO)C(=O)c2cc(NS(=O)(=O)c3ccc(F)cc3)ccc2O[C@@H](C)CCCCO[C@H]1CN(C)C(=O)Nc1cccc2ccccc12`: the cytotoxicity call in the experiment with HSkMC and in the experiment with HepG2 was “inactive” throughout. Also, the growth inhibition call in the experiment on S. aureus RN4220 was “inactive”.

`CCC(=O)NCCC1CCc2ccc3c(c21)CCO3` (centres undefined): the cytotoxicity call in the experiment on HSkMC is “inactive”. The cytotoxicity call with HepG2 is “active”. In addition, the growth inhibition call in the experiment with S. aureus RN4220 is “inactive”.

`C[C@H](CO)N1C[C@H](C)[C@@H](CN(C)S(=O)(=O)c2cn(C)cn2)Oc2ncc(C3=CCCC3)cc2C1=O`: the cytotoxicity call in the experiment on HSkMC and with HepG2 was “inactive” each time. Besides, the growth inhibition call in the experiment on S. aureus RN4220 was “inactive”.

Regarding `C[C@@H]1CN([C@@H](C)CO)S(=O)(=O)c2ccc(C#CC3CCCC3)cc2O[C@H]1CN(C)C(=O)Cc1ccncc1`, the cytotoxicity call with HSkMC and in the experiment on HepG2 was “inactive” in each case. Besides, the growth inhibition call with S. aureus RN4220 was “inactive”.

For the compound `O=C1COc2cccnc2N1`, the cytotoxicity call in the experiment with HSkMC and with HepG2 was “inactive” throughout. In addition, the growth inhibition call in the experiment with S. aureus RN4220 is “inactive”.

On to `C[C@@H]1CCCCO[C@@H](CN(C)C(=O)C2CCCCC2)[C@H](C)CN([C@@H](C)CO)C(=O)c2cc(NC(=O)Nc3cccc4ccccc34)ccc2O1`, for which the cytotoxicity call in the experiment with HSkMC and with HepG2 was “inactive” each time. Moreover, the growth inhibition call in the experiment on S. aureus RN4220 was “inactive”.

On to `C[C@@H]1CN([C@H](C)CO)C(=O)c2cccc(NS(=O)(=O)c3cn(C)cn3)c2O[C@@H]1CN(C)CC1CC1`, for which the cytotoxicity call in the experiment on HSkMC (human skeletal muscle cells) and in the experiment on HepG2 was “inactive” throughout. Further, the growth inhibition call in the experiment on S. aureus RN4220 is “inactive”.

Turning to `CCCNC(=O)Nc1ccc2c(c1)OC[C@H](C)N(Cc1ccc(-c3ccccn3)cc1)C[C@@H](C)[C@H](OC)CN(C)C2=O`, the cytotoxicity call with HSkMC and with HepG2 was “inactive” throughout. Further, the growth inhibition call in the experiment on S. aureus RN4220 was “inactive”.
